The RNAGym collection of RNA variant scans (doi:10.7554/elife.90254)
Read counts are not given, so values of variants with three or more changes are uncertain.

B1: LINE1-mini (parent)
chain: GGCAGAGCUCAACACAGCGUGGCAAAGUGGCUGUGGCUAGACUGCC

Variants of: B1
Test: self-cleavage, relative activity (ratio to wild type); higher = more cleavage; in vitro, sequencing; the parent is a self-cleaving ribozyme

Question: For GGCAGAGCCCAACACAGCGUGGCAAAGUGGCUGGGGCGAGACUUCC [U9C U34G U38G G44U], which self-cleavage is on record?
Answer: Its self-cleavage is 0.

Question: For GGCAGAGCCCAACACAGCGUGGCAAAAUGGCAGUGCCUGGACUGGC [U9C G27A U32A G36C A39G C45G], which self-cleavage is on record?
Answer: Its self-cleavage is 0.

Question: For GGCAGAGCGCAAAAAAGCGUGGCAAAGUGGUUGUGGCUAGACUGCC [U9G C13A C15A C31U], which self-cleavage is on record?
Answer: Its self-cleavage is 0.03.

Question: With GGCAGAGCGCAGUACAGCGUGGCAAAGUGGCUGUGGCUAGACUGCC [U9G A12G C13U] as the variant, how does the self-cleavage read?
Answer: Its self-cleavage is 0.01.

Question: With GGCAGAGCCCAACACAACGUGGCAAAGUGGCUGUGGCUAGACUUCC [U9C G17A G44U] as the variant, how does the self-cleavage read?
Answer: The self-cleavage was 0.01.

Question: Which self-cleavage does the source give for GGCAGAGCGUAACACAGCGGAGCAAAGUCGCUAUGGCUAUACUACC [U9G C10U U20G G21A G29C G33A G40U G44A] here?
Answer: The self-cleavage was 0.02.

Question: For GGCAGAGCGCAAUACAGCGUGGCAAAGUGUCUGUGGUUAGACUGCC [U9G C13U G30U C37U], which self-cleavage is on record?
Answer: Its self-cleavage is 0.03.

Question: With GGCAGAGCGCAACACAGCGUGGCCUAGUGGCUAUGGCUAGACUGCC [U9G A24C A25U G33A] as the variant, how does the self-cleavage read?
Answer: The self-cleavage was 0.06.

Question: For GGCAGAGCGCAAUUCAGCGUGGCAAAGUGUCAGUGUCUAGACUGCC [U9G C13U A14U G30U U32A G36U], which self-cleavage is on record?
Answer: Its self-cleavage is 0.11.

Question: For GGCAGAGCGGAACAUAGCGUGGCAAAGUGGCUGUGGCUAUACUGCC [U9G C10G C15U G40U], which self-cleavage is on record?
Answer: The self-cleavage was 0.01.

Question: Which self-cleavage does the source give for GGCAGAGCGCAACACCGCAUGGCAAAGUGGCUGUGGCUAAACAACC [U9G A16C G19A G40A U43A G44A] here?
Answer: Its self-cleavage is 0.07.

Question: Which self-cleavage does the source give for GGCAGAGCCCAACACAGCUUGGCAAUGUGUCUGUGGCUAGACUGCC [U9C G19U A26U G30U] here?
Answer: Its self-cleavage is 0.01.

Question: Which self-cleavage does the source give for GGCAGAGCGCAACAUAGCGUAGCAAAGUUGCUGUAGCUAGACUGCC [U9G C15U G21A G29U G35A] here?
Answer: The self-cleavage was 0.02.

Question: With GGCAGAGCCCAACACAUCGUGGCAAAGUGGCUGUGCCUGGACUGCG [U9C G17U G36C A39G C46G] as the variant, how does the self-cleavage read?
Answer: The self-cleavage was 0.01.

Question: Which self-cleavage does the source give for GGCAGAGCGCAGCACUGCGUGGCAAAGUGCCUGUGGCUAGACUGCC [U9G A12G A16U G30C] here?
Answer: The self-cleavage was 0.02.

Question: Which self-cleavage does the source give for GGCAGAGCGCAACACAGCGUGGCACAGUGGCUGUGGCUCUACUGUC [U9G A25C A39C G40U C45U] here?
Answer: Its self-cleavage is 0.02.

Question: Which self-cleavage does the source give for GGCAGAGCGCAACACAGCGUGGCAAUGUGGCUGUGGCUAUACUACC [U9G A26U G40U G44A] here?
Answer: The self-cleavage was 0.02.

Question: For GGCAGAGCCCAACACAGCGAGGCAAAGUGGCUGUGGCUAUACUGCC [U9C U20A G40U], which self-cleavage is on record?
Answer: Its self-cleavage is 0.

Question: For GGCAGAGCGCAACACUGCGUGACAAAGUGGCUGUGGCUAGACUGCC [U9G A16U G22A], which self-cleavage is on record?
Answer: Its self-cleavage is 0.01.

Question: Which self-cleavage does the source give for GGCAGAGCGCAACACAGCGUGGCAUAGUGGCUGUGGCUUGAAUGCC [U9G A25U A39U C42A] here?
Answer: The self-cleavage was 0.04.

Question: With GGCAGAGCCCAACACAGCGUGGCAAAGAGGCUGUGGCUAGACUUUC [U9C U28A G44U C45U] as the variant, how does the self-cleavage read?
Answer: Its self-cleavage is 0.03.

Question: For GGCAGAGCCCAACACAGCGUCGCAACGUGGCUGUGGCUAGACUGCC [U9C G21C A26C], which self-cleavage is on record?
Answer: Its self-cleavage is 0.01.

Question: For GGCAGAGCCCAACACAGCGUAGCAAAGUGGCUGUGGCUAAACCGCA [U9C G21A G40A U43C C46A], which self-cleavage is on record?
Answer: Its self-cleavage is 0.01.

Question: With GGCAGAGCGUAACACAGGGUGGCAAAGUGGCUGUGGCUAGACUGCC [U9G C10U C18G] as the variant, how does the self-cleavage read?
Answer: The self-cleavage was 0.02.

Question: Which self-cleavage does the source give for GGCAGAGCGCAACUCUGCGUGGCAAAGUGGCUGUGCCUAGACUGCC [U9G A14U A16U G36C] here?
Answer: The self-cleavage was 0.05.

Question: With GGCAGAGCCCAACACAGCGUAGCAAAUUGGCUGUGGCUAGACUGCC [U9C G21A G27U] as the variant, how does the self-cleavage read?
Answer: Its self-cleavage is 0.03.

Question: For GGCAGAGCGCAACAUAGCGUGGCAAAGUGGCAGUGGCUAGACUGCC [U9G C15U U32A], which self-cleavage is on record?
Answer: The self-cleavage was 0.02.

Question: Which self-cleavage does the source give for GGCAGAGCCCAACACAGCGUGGCAAAGUGGCUGUGAAUAGACUGCC [U9C G36A C37A] here?
Answer: Its self-cleavage is 0.09.

Question: With GGCAGAGCCCAACACAGCGUGGCAAAGUGGCUGCAGCUAGACUGCC [U9C U34C G35A] as the variant, how does the self-cleavage read?
Answer: The self-cleavage was 0.04.

Question: Which self-cleavage does the source give for GGCAGAGCGCAACAAAGCGUGGCAGAGUGCCUGUGCCUAGACCGCC [U9G C15A A25G G30C G36C U43C] here?
Answer: Its self-cleavage is 0.01.

Question: Which self-cleavage does the source give for GGCAGAGCGCAACAUAGCGUUGCAAAGUGGCUGUGGCUAGACUGCC [U9G C15U G21U] here?
Answer: Its self-cleavage is 0.02.

Question: Which self-cleavage does the source give for GGCAGAGCGCAACACAGCGUGGCAACGUGGCUGUGGAUAGACUGCC [U9G A26C C37A] here?
Answer: Its self-cleavage is 0.05.

Question: With GGCAGAGCGUAACACAGCGUGGCAAAGCCGCUGUGGCUAGACCGCC [U9G C10U U28C G29C U43C] as the variant, how does the self-cleavage read?
Answer: Its self-cleavage is 0.01.

Question: Which self-cleavage does the source give for GGCAGAGCGCAAGACAGCGUUGCAAAGUGGCUGUGGGUAGACUGCC [U9G C13G G21U C37G] here?
Answer: The self-cleavage was 0.07.

Question: With GGCAGAGCGCAACACGGCGUGACAAAGUGGCUGUGGCUGGACUGCC [U9G A16G G22A A39G] as the variant, how does the self-cleavage read?
Answer: Its self-cleavage is 0.03.

Question: With GGCAGAGCGCAACACAGCGUGGCAAGGUGUCUGUUGCUAGACUGCC [U9G A26G G30U G35U] as the variant, how does the self-cleavage read?
Answer: The self-cleavage was 0.02.

Question: Which self-cleavage does the source give for GGCAGAGCGCAACGCAGCGUGGUAAAAUGGCUGUGGCUAGACUGCC [U9G A14G C23U G27A] here?
Answer: Its self-cleavage is 0.06.

Question: With GGCAGAGCGCCACACAGCGUGGCAAAGAGGCUGUGGCUAGACUGCC [U9G A11C U28A] as the variant, how does the self-cleavage read?
Answer: The self-cleavage was 0.01.

Question: Which self-cleavage does the source give for GGCAGAGCGCAACACUGCGUGGCAACGUGGCUGUGGCUAGACUGCC [U9G A16U A26C] here?
Answer: Its self-cleavage is 0.08.

Question: Which self-cleavage does the source give for GGCAGAGCGCAGCACAGCGUGGCAAAGUUGAUGUGGCUAGACUGCC [U9G A12G G29U C31A] here?
Answer: Its self-cleavage is 0.02.

Question: With GGCAGAGCCCAACACAGCUUGGAAAAGUGGCUGUGGCUUGACUGCC [U9C G19U C23A A39U] as the variant, how does the self-cleavage read?
Answer: The self-cleavage was 0.01.

Question: For GGCAGAGCGCAAUACAGCUUGGCAAAGUGGCUGUGGCUCGACUGCC [U9G C13U G19U A39C], which self-cleavage is on record?
Answer: Its self-cleavage is 0.09.

Question: Which self-cleavage does the source give for GGCAGAGCCCAACACAGCAUGGCAAAGUGGCUGUGGCAAGACCGCC [U9C G19A U38A U43C] here?
Answer: The self-cleavage was 0.01.

Question: Which self-cleavage does the source give for GGCAGAGCGUAACACAGCGUGGCAAAGUGGCUGUGGUAUGACUGCC [U9G C10U C37U U38A A39U] here?
Answer: Its self-cleavage is 0.01.

Question: Which self-cleavage does the source give for GGCAGAGCGCAAUACACCGUGGCAAAGUGGCGGUGGCUAGACUGCC [U9G C13U G17C U32G] here?
Answer: Its self-cleavage is 0.1.

Question: With GGCAGAGCGUAACACAGCGUGGCAAAGUCGCUGUGGCUCGACUGCC [U9G C10U G29C A39C] as the variant, how does the self-cleavage read?
Answer: Its self-cleavage is 0.02.

Question: Which self-cleavage does the source give for GGCAGAGCCCAACACAGCGUGGCAAAGUGGCUAUGGCUAUACUGCC [U9C G33A G40U] here?
Answer: The self-cleavage was 0.04.

Question: With GGCAGAGCGCAUCAAAGCGUGGCAAAGUGUCUGUGUCUAGACUGCC [U9G A12U C15A G30U G36U] as the variant, how does the self-cleavage read?
Answer: Its self-cleavage is 0.

Question: For GGCAGAGCGCAAAACAGUGUGGCAAAGUGGCUGUGGCUAGACUGCC [U9G C13A C18U], which self-cleavage is on record?
Answer: Its self-cleavage is 0.06.

Question: With GGCAGAGCGCGACACAGUGUGGCAAAGUGGGUGUGGCUAGACUGCC [U9G A11G C18U C31G] as the variant, how does the self-cleavage read?
Answer: Its self-cleavage is 0.01.

Question: With GGCAGAGCCCAACACAGCGUGUCAAAUUGGCUGUGGCUAGACUCCC [U9C G22U G27U G44C] as the variant, how does the self-cleavage read?
Answer: The self-cleavage was 0.13.

Question: With GGCAGAGCCCAACACAGCGAGGCACAGUGGCUGUGGCUAGACUGCC [U9C U20A A25C] as the variant, how does the self-cleavage read?
Answer: The self-cleavage was 0.03.

Question: Which self-cleavage does the source give for GGCAGAGCGCCACAGAGCCUGCCAAAGUGGCUGUGGCUAGAGUGCC [U9G A11C C15G G19C G22C C42G] here?
Answer: Its self-cleavage is 0.

Question: For GGCAGAGCGUUACACAGCUUGGCAAAGUGGCUGUGGCUAGAGUGCC [U9G C10U A11U G19U C42G], which self-cleavage is on record?
Answer: The self-cleavage was 0.02.

Question: For GGCAGAGCGUAACACAGCGUGGCAAAGUGGCUGUGGCUAGACUUCC [U9G C10U G44U], which self-cleavage is on record?
Answer: The self-cleavage was 0.04.

Question: For GGCAGAGCGCAACCCAGCGUGGGAAAGUGGCUGUGGCUAGACUUCC [U9G A14C C23G G44U], which self-cleavage is on record?
Answer: The self-cleavage was 0.04.
